Experimental data as given in PubChem BioAssay AID485297 (National Center for Advancing Translational Sciences (NCATS), 2010).
Screen size: about 320,000 compounds; about 9,100 (2.8%) were called active. Inconclusive means that the source gave no clear call. Such entries were picked first, then a sample of the others. Calls come from the whole dose curve; as a rule, active = well fitted activation curve with a large enough effect; inconclusive = small, poorly fitted or top-dose-only effect; inactive = no such curve, though single readings can be large or run the other way. No potency is given beside an inconclusive call; the fits are too rough.

Assay: qHTS Assay for Rab9 Promoter Activators; note: nearly all actives have a fitted effect of over 60% in size; for activation, negative = inhibition: % of control where 0% means no effect
Conditions: Huh7 Rab9 promoter-luciferase reporter, luminescence, 24 h; series mostly up to 9.22 µM; activation, negative = inhibition: at the top concentration
Outline: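 Using Huh7 cells stably transfected with Rab9 promoter–luciferase, compounds were incubated 24 h at 37 °C, 5% CO2; luciferase luminescence was read 10 min after reagent addition.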
Potency is the fitted concentration of half-maximal effect; tags give direction and shape of the fitted curve.

Structure (SMILES)	Potency	activation, negative = inhibition
O=C(Nc1ccc(Br)cc1)Nc1ccccc1F	active: 2820 nM	–
Fc1cccc(CSc2nc3ncccc3[nH]2)c1	inconclusive [activator, single point]	–
CCCCOC(=O)c1ccc(-c2ccc(/C=N/NC(=S)NCC)o2)cc1	inconclusive [activator, partial curve]	–
COc1ccccc1NC(=O)/C(C#N)=C/c1ccc(OCCN2CCOCC2)c(OC)c1	inconclusive [activator, partial curve]	–
CCOc1ccc2oc(C(=O)Nc3cc(C)ccn3)c(C)c2c1	active: 501 nM	–
Cc1cc(=O)oc2cc(NC(=O)c3cccc(S(=O)(=O)N(C)C)c3)ccc12	active: 891 nM	–
CCN(CC(=O)Nc1ccc(NC(C)=O)cc1)C(=O)C1COc2ccccc2O1 (centres undefined)	–	inactive: 1.18%
Oc1ccc(/C=N/Nc2cccc(Cl)n2)c(O)c1	–	inactive: 7.68%
C=CCn1c(O)c(N=Nc2ccccc2C)c2ccccc21	inconclusive [activator, single point]	–
O=C(O)c1cccc(NC2=C(Cl)C(=O)c3ccccc3C2=O)c1	inconclusive [activator, partial curve]	–
CCOC(=O)Cn1cnc(-c2ccc([N+](=O)[O-])cc2)c1	inconclusive [activator, partial curve]	–
CC(OC(=O)Cc1ccc(Cl)cc1)C(=O)NC1CCCCC1C (centres undefined)	–	inactive: -2.18%
COc1cc(C)nc(NC(=S)N(C)C(=O)c2ccccc2)n1	–	inactive: -7.37%
COc1ccc(CCNC(=O)Nc2ccccc2[N+](=O)[O-])cc1	inconclusive [activator, partial curve]	–
C=CCn1cccc(C(=O)Nc2ccc(OC)c(Cl)c2)c1=O	inconclusive [activator, full curve, poor fit]	–
O=C(NNS(=O)(=O)c1ccc(C(=O)NC2CCCC2)cc1)c1ccncc1	–	inactive: -0.67%
Cc1cc(C)c(C(=O)OCC(=O)Nc2cccc(S(=O)(=O)N3CCCCC3)c2)c(C)c1	–	inactive: 1.74%
O=C(Cc1ccccc1)NCc1ccc2c(c1)OCO2	inconclusive [activator, partial curve]	–
O=[N+]([O-])c1nn(-c2ccc3c(c2)OCCO3)n(O)c1=NC1CCCC1	inconclusive [activator, partial curve]	–
O=C(Nc1nc(COc2ccccc2)cs1)C1CCC1	inconclusive [activator, partial curve]	–
CCCN1CCN(CCCNC(=O)c2ccc3nc(N4CCCCC4)sc3c2)CC1	inconclusive [activator, partial curve]	–
Cc1cccc(Cc2cnc(NC(=O)c3ccc(C)o3)s2)c1	inconclusive [activator, single point]	–
c1csc(-c2cnc3ccccc3n2)c1	inconclusive [activator, single point]	–
CC(=O)Nc1ccc(/C=N/NC(=O)c2cccs2)cc1	active: 1260 nM	–
O=C(OCC(=O)N1CCCCC1)c1cc2ccccc2cc1O	–	inactive: 12.5%

Structure (SMILES)	Potency	activation, negative = inhibition
O=C(Nc1ccccc1F)Nc1ccccc1OC(F)F	–	inactive: -3.21%
CCC(=O)Nc1cccc(C(=O)/C=C/c2cccs2)c1	inconclusive [activator, single point]	–
Cc1cc(C(=O)NNC(=O)COc2c(C)cc(Br)cc2C)n[nH]1	–	inactive: 6.77%
COc1ccc(C(=O)NC(=S)NC(C)(C)C)cc1Br	inconclusive [activator, single point]	–
CCOC(=O)c1c(C)[nH]c(N=Nc2ccccc2Cl)c1C	inconclusive [activator, single point]	–
O=C(Cn1cc(C(F)(F)F)cc(Cl)c1=O)NCc1ccc(F)cc1	inconclusive [activator, partial curve]	–
Cc1cccc(N=Nc2c(C)[nH]n(-c3ccccc3)c2=O)c1	inconclusive [activator, partial curve, poor fit]	–
Cc1cc(N/N=C/c2ccccc2Br)nc2ccccc12	–	inactive: 22%
C(=C\c1ccccc1)/C=N/N1CCN(c2ccccn2)CC1	inconclusive [activator, partial curve]	–
Cc1ccc(Nc2nc(-c3cccnc3)cs2)cc1C	inconclusive [activator, partial curve]	–
Cc1cc(C(=O)NNC(=O)c2sccc2C)c(C)o1	inconclusive [activator, partial curve]	–
O=C(O)c1cnn(-c2nc(-c3ccc(F)cc3)cs2)c1C(F)(F)F	inconclusive [activator, partial curve]	–
O=C(O)c1ccccc1NC(=O)c1cc2ccccc2oc1=O	active: 2820 nM	–
COc1cc(C(=O)Nc2nnc(S(=O)(=O)N3CCCCCC3)s2)cc(OC)c1OC	–	inactive: -2%
Nc1ccc2nc3c(=O)n(C4CCCCC4)c(=O)[nH]c3nc2c1	inconclusive [activator, single point]	–
Cc1cc2[nH]c(=O)cc(-c3ccccc3)n2n1	inconclusive [activator, partial curve]	–
CCc1cccc(NC(=O)Nc2ccc3c(c2)OCO3)c1	inconclusive [activator, partial curve]	–
CC(C)(C)NC(=O)CCCSc1nc2ccccc2s1	active: 1780 nM	–
O=[N+]([O-])c1ccc(NC2CCN(Cc3ccccc3)CC2)c([N+](=O)[O-])c1	inconclusive [activator, single point]	–
O=C(Nc1ccc(N2CCOCC2)cc1)c1cc(-c2ccncc2)nc2ccccc12	–	inactive: -3.24%
O=C(NC(=S)NCc1ccc(-c2nc3ccccc3s2)cc1)c1ccco1	active: 3980 nM	–
O=C(NC(=S)Nc1ccc(S(=O)(=O)Nc2nccs2)cc1)c1ccc(F)cc1	–	inactive: -2.41%
O=C(Nc1nnc(-c2cccs2)s1)c1cccc(F)c1	active: 891 nM	–
CC1CC(C)(C)N(C(=O)CSc2ccc(-c3ccc(F)cc3)nn2)c2ccccc21 (centres undefined)	–	inactive: 0.179%
